Experimental data published in the supplement of paper PMC4967469.
Lines with a small IC50 respond at low doses; a limit (>, <) means that the fit lies beyond the doses tested. For AUC the same curve is integrated over the 256-fold range of doses and scaled to a fraction; values near 1 show little effect. For some assays here: A top dose marked as inferred was calculated from the reported fits. For some assays here: Where an entry number is given, a second screen of the drug exists; the two often differ.

Key:
Experiment in all cases: Viability of human cancer cell lines after 72 h of drug (GDSC screen)
[1] = compound: Nc1ccn([C@@H]2O[C@H](CO)[C@@H](O)[C@@H]2O)c(=O)n1 [Cytarabine]; conditions: top dose 2 µM
Method: (§1)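 Human cancer cell lines in 384-well plates, medium with 10% serum, drug for 72 h over a 256-fold dose range (nine 2-fold or five 4-fold steps up to the top dose). Adherent lines were fixed and stained with the nucleic acid dye Syto60, suspension lines read with resazurin; signal relative to control wells, capped at 0 and 100%. One two-parameter sigmoid per drug and line, fitted in a mixed model over all curves with the slope shared within a line.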

[2] = compound: COc1cc(O)c2c(c1)/C=C/C[C@H](O)[C@H](O)C(=O)/C=C\C[C@H](C)OC2=O [(5Z)-7-Oxozeaenol]; conditions: top dose 10 µM; top dose inferred
Method: as §1

[3] = compound: C[C@]1(c2nc3c(C(N)=O)cccc3[nH]2)CCCN1 [ABT-888]; conditions: top dose 5 µM; top dose inferred
Method: as §1

[4] = compound: O=c1cc(-c2cccc3c2Sc2ccccc2S3)oc(N2CCOCC2)c1 [KU-55933]; conditions: top dose 10 µM
Method: as §1

[5] = compound: CCn1c(-c2nonc2N)nc2cnc(Oc3cccc(NC(=O)c4ccc(OCCN5CCOCC5)cc4)c3)cc21 [GSK269962A]; conditions: top dose inferred
Method: as §1

[6] = compound: Cc1cnc(-c2cnc(NCCNc3ccc(C#N)cn3)nc2-c2ccc(Cl)cc2Cl)[nH]1 [CHIR-99021]; conditions: top dose 10 µM; screen: GDSC drug entry 1241; top dose inferred
Method: as §1

[7] = top dose 5 µM, screen: GDSC drug entry 1192
[8] = top dose 2.5 µM, screen: GDSC drug entry 127

Cell Line	AUC [1]	IC50 [1] [µM]	AUC [2]	IC50 [2] [µM]	AUC [3]	IC50 [3] [µM]	AUC [4]	IC50 [4] [µM]	AUC [5, 7]	IC50 [5, 7] [µM]	AUC [6]	IC50 [6] [µM]	AUC [5, 8]	IC50 [5, 8] [µM]
BALL-1 (B-cell leukaemia, suspension)	0.343	0.052	0.859	4.92	0.997	> 5	0.982	> 10	0.986	> 5	0.87	5.3		
CL-34 (large intestine, adherent)	0.868	> 2	0.545	0.84	0.98	> 5	0.977	> 10	0.906	> 5	0.986	> 10		
CL-40 (large intestine, adherent)	0.938	> 2	0.72	4.1	0.963	> 5	0.975	> 10	0.972	> 5	0.9	> 10		
CML-T1 (chronic myeloid leukaemia, suspension)	0.317	0.0426	0.588	1.04	0.991	> 5	0.947	> 10	0.964	> 5	0.976	> 10		
CRO-AP2 (B-cell lymphoma, suspension)	0.745	0.558	0.476	0.544	0.98	> 5	0.95	> 10	0.481	0.279	0.978	> 10	0.846	1.47
DIFI (large intestine, adherent)	0.808	1.09	0.734	2.99	0.984	> 5	0.983	> 10	0.835	3.48	0.961	> 10		
EW-22 (Ewing sarcoma, adherent)	0.761	0.686	0.795	4.43	0.988	> 5	0.964	> 10	0.917	> 5	0.799	4.58	0.955	> 2.5
HCC-366 (non-small cell lung carcinoma, adherent)	0.929	> 2	0.781	4.31	0.988	> 5	0.983	> 10	0.926	> 5				
JHOS-4 (ovary, adherent)	0.804	1.59			0.979	> 5	0.965	> 10						
KATOIII (stomach, semi-adherent)	0.942	> 2	0.749	3	0.99	> 5	0.967	> 10	0.977	> 5	0.915	> 10		
KNS-62 (lung squamous cell carcinoma, adherent)	0.8	1.53	0.631	1.69	0.956	> 5	0.905	> 10	0.967	> 5	0.975	> 10		
MEL-HO (melanoma, adherent)	0.806	1.03	0.079	< 0.0391	0.986	> 5	0.949	> 10	0.912	> 5	0.982	> 10		
MHH-CALL-2 (B-cell leukaemia, suspension)	0.921	1.62	0.865	5.25	0.993	> 5	0.984	> 10	0.996	> 5	0.987	> 10		
MKN7 (stomach, adherent)	0.953	> 2	0.802	7.09	0.979	> 5	0.926	> 10	0.955	> 5	0.97	> 10		
MM1S (myeloma, suspension)	0.885	> 2			0.984	> 5	0.944	> 10						
MOLT-16 (T-cell lymphoblastic leukaemia, suspension)	0.294	0.0378	0.55	0.831	0.984	> 5	0.992	> 10	0.566	0.455	0.847	5.24		
NCC010 (kidney, adherent)	0.754	0.72	0.795	5.02	0.986	> 5	0.956	> 10	0.966	> 5	0.861	9.5		
NCI-H146 (small cell lung carcinoma, suspension)	0.958	> 2	0.937	> 10	0.988	> 5	0.981	> 10	0.979	> 5	0.995	> 10		
NCI-H508 (large intestine, semi-adherent)	0.908	> 2	0.899	> 10	0.951	> 5	0.846	> 10	0.854	> 5	0.95	> 10		
NCI-H835 (lung carcinoid, suspension)	0.991	> 2	0.875	9.02	0.989	> 5	0.985	> 10	0.975	> 5	0.99	> 10		
